From PMC12040169 (PLOS Biology, 2025) come the findings set out here.

Each structure is given as a SMILES string. This is one part of the list.

This experiment relates to T1, C. trachomatis L2/434/Bu expressing GFP (CTL2-GFP).
T1 construct: L2/434/Bu GFP intracellular growth in HeLa cells
Details: species or system HeLa; C. trachomatis total inclusion area by high-content imaging, normalised to DMSO. Particulars: total inclusion area; 28.5 h, 10 µM; inhibitor. The essentials:
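Following bulk GFP and resorufin fluorescence reads, infected cells were fixed, Hoechst-stained and imaged on a high-content platform. Inclusion total area and number per well served as growth proxies; nuclei counts indicated host viability. MICs were derived as for the fluorescence assay.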
As for `CC(=O)NCC(=O)N1C[C@@H]2CCCCN(Cc3cccc(F)c3)[C@@H]2C1` [CBK285515], the “% of control remaining” value is recorded as 96.3456.
Turning to `COc1ccc(-c2nn(-c3ccccc3)cc2C(=O)Nc2ccc(C(=O)O)cc2)cc1OC` [CBK296112], the “% of control remaining” value came out at 137.097.
The same measure for `COc1nccnc1-c1ccc(SC)cc1` [CBK106795]: 82.0727; for `Cc1ccccc1NC(=O)NC(=O)C1CCN(S(C)(=O)=O)CC1` [CBK034862]: 80.4272.
For `c1ccc2nc(N3CCCC3)c(SCCc3cnccn3)nc2c1` [CBK103695] the value was 95.9339; for `Fc1ccccc1CN(CCCn1ccnc1)Cc1ccoc1` [CBK283024], 103.753; for `COc1ccc(Cl)cc1NC(=O)CC1NC2CCCCC2NC1=O` (centres unmarked) [CBK267318], 88.9268.
For `O=S(=O)(NCCCN1CCN(Cc2ccccc2)CC1)c1cccc(Cl)c1Cl` [CBK074655], the “% of control remaining” value is 78.5201.
For `Cn1ncc2c(NCC(=O)N3CCNCC3)nc(C(C)(C)C)nc21` [CBK307702] the value was 66.3151.
For `NCC(=O)N(CCC1CCCC1)c1cccc2ccccc12` [CBK011922C] the value was 107.032; for `CC1CCc2c(sc3ncnc(OCC(=O)N4CCCCC4)c23)C1` (centres unmarked) [CBK304979], 63.9394.
For `Cc1cccc(N(CC(O)CN2C(=O)NC(C)(C)C2=O)S(=O)(=O)c2ccccc2)c1` (centres unmarked) [CBK263582], the “% of control remaining” value came out at 99.3453.
As for `Cc1csc(C(Cc2cccs2)NC(=O)C2CCOCC2)n1` (centres unmarked) [CBK285006], the “% of control remaining” value is 99.594.
The same measure for `c1ccc(CNc2nnc(-c3ccccc3)s2)cc1` [CBK074928]: 43.8631; for `COc1ccc2c(c1)CCCN2C(=O)CCn1ccc(C)n1` [CBK282217]: 71.399.
The same measure for `Cc1nc2c(c(=O)[nH]1)CC[C@@H]1CN(C(=O)c3cccs3)C[C@H]21` [CBK284406]: 73.6865; for `CC(C)N(Cc1nc(-c2ccc(Cl)cc2)no1)C(=O)COc1ccc(Br)cc1Cl` [CBK267126]: 89.9288; for `O=C(NCc1ccccn1)c1ncoc1-c1ccc(F)cc1` [CBK282352]: 59.5068.
For `Cn1c(SCC(=O)Nc2ccc(F)cc2)nnc1-c1cccnc1` [CBK267035] the value was 136.848; for `O=C(COc1ccccc1)Nc1cccc(N2CCNCC2)c1` [CBK028271T], 83.1138; for `CCOc1cc(/C=c2/sc3nc(=O)c(Cc4ccccc4)nn3c2=O)ccc1OC(C)=O` [CBK077455], 108.096.
As to `Cc1cc(C)n(CC(C)C(=O)Nc2cccnc2)n1` (centres unmarked) [CBK307573], the “% of control remaining” value is 58.0649.
The same measure for `CCN(CC(=O)Nc1ccc2c(c1)OCCO2)S(=O)(=O)c1ccsc1C(=O)O` [CBK296717]: 105.921.
